# According to patent publication US9714221B1 (priority 2016, dated 2017):
# Where a name gives a salt, the structure may show the parent alone.
# System: MCF7 cells (breast tumor cells) WT
# Experiment: cells
# Conditions: Homo sapiens, read-out: proliferation MCF7 (WT) IC50 (nM)
row,Structure (SMILES),IC50 [nM]
1,"Cc1cc(C(C)(C)C)ccc1C1=C(c2ccc(O[C@H]3CCN(CCCF)C3)cc2)c2ccc(O)cc2CCC1 [Example 181, 6-(4-tert-butyl-2-methyl-phenyl)-5-[4-[(3S)-1-(3-fluoropropyl)pyrrolidin-3-yl]oxyphenyl]-8,9-dihydro-7H-benzo[7]annulen-2-ol]",2
2,CCN1C(=O)COc2ccc(C3=C(c4ccc(O[C@H]5CCN(CCCF)C5)cc4)c4ccc(O)cc4CCC3)cc21 [Example 135],1
3,"Cc1cncc(C2=C(c3ccc(O[C@H]4CCN(CCCF)C4)cc3)c3ccc(O)cc3CCC2)c1 [Example 96, 5-[4-[(3S)-1-(3-fluoropropyl)pyrrolidin-3-yl]oxyphenyl]-6-(5-methyl-3-pyridyl)-8,9-dihydro-7H-benzo[7]annulen-2-ol]",0.8
4,"Oc1ccc2c(c1)C(c1ccc(O[C@H]3CCN(CCCF)C3)cc1)=C(c1ccc3[nH]ccc3c1)CCC2 [Example 3, 5-[4-[(3S)-1-(3-fluoropropyl)pyrrolidin-3-yl]oxyphenyl]-6-(1H-indol-5-yl)-8,9-dihydro-7H-benzo[7]annulen-3-ol]",9
5,"Oc1ccc2c(c1)CCCC(C1CCOCC1)=C2c1ccc(O[C@H]2CCN(CCCF)C2)cc1 [Example 203, 5-[4-[(3S)-1-(3-fluoropropyl)pyrrolidin-3-yl]oxyphenyl]-6-tetrahydropyran-4-yl-8,9-dihydro-7H-benzo[7]annulen-2-ol]",0.1
6,"Cc1c(Cl)cccc1C1=C(c2ccc(O[C@H]3CCN(CCCF)C3)cc2)c2ccc(O)cc2CCC1 [Example 7, 6-(3-chloro-2-methyl-phenyl)-5-[4-[(3S)-1-(3-fluoropropyl)pyrrolidin-3-yl]oxyphenyl]-8,9-dihydro-7H-benzo[7]annulen-2-ol]",0.2
7,"Oc1ccc2c(c1)CCCC(c1ccc(N3CCOCC3)cc1)=C2c1ccc(O[C@H]2CCN(CCCF)C2)cc1 [Example 185, 5-[4-[(3S)-1-(3-fluoropropyl)pyrrolidin-3-yl]oxyphenyl]-6-(4-morpholinophenyl)-8,9-dihydro-7H-benzo[7]annulen-2-ol]",41
8,"Cc1cc(OC(F)(F)F)ccc1C1=C(c2ccc(O[C@H]3CCN(CCCF)C3)cc2)c2ccc(O)cc2CCC1 [Example 146, 5-[4-[(3S)-1-(3-fluoropropyl)pyrrolidin-3-yl]oxyphenyl]-6-[2-methyl-4-(trifluoromethoxy)phenyl]-8,9-dihydro-7H-benzo[7]annulen-2-ol]",0.4
9,"Cc1cc(F)ccc1C1=C(c2ccc(O[C@H]3CCN(CCCF)C3)cc2)c2ccc(O)cc2CCC1 [Example 17, 6-(4-fluoro-2-methyl-phenyl)-5-[4-[(3S)-1-(3-fluoropropyl)pyrrolidin-3-yl]oxyphenyl]-8,9-dihydro-7H-benzo[7]annulen-2-ol]",0.2
10,"COc1c(F)cccc1C1=C(c2ccc(O[C@H]3CCN(CCCF)C3)cc2)c2ccc(O)cc2CCC1 [Example 41, 6-(3-fluoro-2-methoxy-phenyl)-5-[4-[(3S)-1-(3-fluoropropyl)pyrrolidin-3-yl]oxyphenyl]-8,9-dihydro-7H-benzo[7]annulen-2-ol]",0.2
11,"CCOc1ccc(C2=C(c3ccc(O[C@H]4CCN(CCCF)C4)cc3)c3ccc(O)c(F)c3CCC2)c(F)n1 [Example 82, 6-(6-ethoxy-2-fluoro-3-pyridyl)-1-fluoro-5-[4-[(3S)-1-(3-fluoropropyl)pyrrolidin-3-yl]oxyphenyl]-8,9-dihydro-7H-benzo[7]annulen-2-ol]",0.8
12,"Cc1ccc(C2=C(c3ccc(O[C@H]4CCN(CCCF)C4)cc3)c3ccc(C(=O)O)cc3CCC2)c(F)c1 [Example 48, 6-(2-fluoro-4-methyl-phenyl)-5-[4-[(3S)-1-(3-fluoropropyl)pyrrolidin-3-yl]oxyphenyl]-8,9-dihydro-7H-benzo[7]annulene-2-carboxylic acid]",0.7
13,"CC1(C)Cc2cc(C3=C(c4ccc(O[C@H]5CCN(CCCF)C5)cc4)c4ccc(C(=O)O)cc4CCC3)ccc2N1 [Example 174, 6-(2,2-dimethylindolin-5-yl)-5-[4-[(3S)-1-(3-fluoropropyl)pyrrolidin-3-yl]oxyphenyl]-8,9-dihydro-7H-benzo[7]annulene-2-carboxylic acid hydrochloride]",1
